Measurements: PubChem BioAssay AID493208 (National Center for Advancing Translational Sciences (NCATS), 2011)
About 340 (0.77%) of roughly 44,000 compounds were called active. Another 5% or so got no clear call; they are omitted. The call rests on the fitted dose curve; in most records, active means well fitted inhibition curve with a large enough effect; inconclusive means small, poorly fitted or top-dose-only effect; inactive means flat fitted curve, though single readings scatter. This is one part of the list.

Assay: Acumen qHTS Assay for Inhibitors of the mTORC1 Signaling Pathway in MEF (Tsc2-/-, p53-/-) Cells: Sytravon;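 further: plate controls were DMSO for no effect and rapamycin for full effect; nearly all actives have a fitted effect of over 50% in size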
Conditions: phospho-rpS6 immunofluorescence/PI, 24 h; series mostly up to 38.3 µM; activity change, negative = inhibition: at the top concentration
How it was run: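 Tsc2-/-, p53-/- MEFs (empty-vector stable line) in DMEM + 10% FBS were treated with compounds 24 h at 37 degree Celsius, fixed, and immunostained for phospho-rpS6 (Alexa-488) with propidium iodide counterstain. Laser-scanning cytometry gave % positive cells, normalized against 7.5 nM rapamycin and DMSO.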

Activity change, negative = inhibition, inactive:
CCOc1ccc(-c2nnc(SCC(=O)NCc3ccccc3)o2)cc1 0.917%, O=C1CN(C(=O)c2ccc(S(=O)(=O)N3CCCC3)cc2)C(c2ccccc2)c2cc(Br)ccc2N1 (stereo not given) -7.31%, Cc1ccc(NC(=O)CN2CCSc3ccc(S(=O)(=O)N4CCCC4)cc32)cc1C -1.1%, CC(C)(C)C(=O)NC1(C(F)(F)F)C(=O)Nc2c1c(=O)[nH]c(=O)n2-c1ccccc1 (stereo not given) -12.9%, CCOc1ccc(-n2nc3cc(C)c(NC(=O)c4cc(OCC)c(OCC)c(OCC)c4)cc3n2)cc1 0.475%, COc1cc(OC)c(NS(=O)(=O)c2cc(-c3cnc(C4CC4)o3)ccc2C)cc1Cl 0%, Cc1nnc(N2CCC(C(=O)NCCc3ccccc3)CC2)c2nn(-c3ccc(Cl)cc3)c(C)c12 3.14%, CCN(CC)c1ccc(NC(=O)c2sc3nc4c(cc3c2N)CN(C)CC4)cc1 -1.03%, CCn1c(C(=O)N2CCCC(C(=O)N3CCN(c4cc(C)ccc4C)CC3)C2)cc2sccc21 (stereo not given) 1.21%, COc1cc(OC)c(OC)cc1CNc1sc2c(c1C(=O)Nc1ccccc1OC)CCC2 -20.7%, O=C(Nc1ccc2nc(SCC(=O)N3CCc4ccccc43)sc2c1)c1cccc(Cl)c1 -8.77%, CN(C(=O)CCS(=O)(=O)c1cc2c(cc1Cl)NC(=O)CO2)C1CCCCC1 -0.369%, Cc1ccc(CCNC(=O)CCS(=O)(=O)c2cc3c(cc2C)NC(=O)CO3)cc1 -0.388%, Cc1nncn1-c1ccc(C(=O)Nc2cc(F)ccc2F)cc1 -0.0669%, COc1ccc(NC(=O)CSc2nc3nc(C)c(Cc4ccccc4Cl)c(C)n3n2)cc1OC 12.4%, COc1ccc(C)cc1NS(=O)(=O)c1cc2c3c(c1)CC(=O)N3CCC2 2.65%, CCn1c(=N)c(C(=O)NC2CCCCC2)cc2c(=O)n3cc(C)ccc3nc21 -0.368%, Cc1ccccc1CCNC(=O)c1cc2cc(S(=O)(=O)N3CCCCC3)ccc2n1C -11.8%, COc1ccc(-n2c(=O)c3ccccc3n(CC(=O)NCCc3ccc(OC)c(OC)c3)c2=O)cc1 -3.86%, COc1cc2c(cc1OC)C(COc1cc(C)cc(C)c1)N(C(=O)COc1ccccc1)CC2 (stereo not given) -15.5%, COc1ccc(NC(=O)c2cc3c(=O)n(Cc4cccnc4)ccc3nc2C)cc1OC -2.37%, COc1ccc(Cl)cc1NC(=O)CCCN1C(=O)C(c2ccccc2)Oc2cccnc21 (stereo not given) -21.3%, CCOCCCN(Cc1ccco1)S(=O)(=O)c1cc2c(cc1C)NC(=O)CO2 9.46%, COc1ccc(-n2ncc(C(=O)Nc3cccc(C(F)(F)F)c3)c2C2CCN(C(=O)OC(C)(C)C)CC2)cc1 -3.4%, Cc1ccc(C2=Nc3ccccc3N(CC(=O)NCc3ccccc3Cl)C(=O)C2)cc1C 2.59%
